The entries are a selection whose mix differs from that of the whole data set. The list includes weakly bound sequences.
biological target: T1, GST-Co-NF-kB (UniProt F1ARL5); experiment: protein-binding microarray (PBM); conditions: PBM: ~300 nM protein, 6 mM HEPES pH 7.8, 80 mM KCl, 0.5 mM EDTA, 0.5 mM EGTA, 6% glycerol, 35 ng/ul poly-dIdC, 1% milk, 1 h, room temperature; high values mean tight binding; double strand, one strand shown
T1 sequence: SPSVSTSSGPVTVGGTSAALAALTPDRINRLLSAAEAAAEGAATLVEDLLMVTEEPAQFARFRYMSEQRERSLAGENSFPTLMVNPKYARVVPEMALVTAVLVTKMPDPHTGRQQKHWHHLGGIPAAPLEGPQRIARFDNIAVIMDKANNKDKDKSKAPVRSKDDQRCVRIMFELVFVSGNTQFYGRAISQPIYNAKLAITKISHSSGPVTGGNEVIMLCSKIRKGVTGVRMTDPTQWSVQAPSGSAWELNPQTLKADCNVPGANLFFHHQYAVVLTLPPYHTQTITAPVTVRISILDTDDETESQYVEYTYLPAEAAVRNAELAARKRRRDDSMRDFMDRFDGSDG

| Sequence | binding signal |
| --- | --- |
| CCGATTAACATCAGGAAATATCCTGATGTTAATCGGGTCTTGATTCGCTTGACGCTGCTG | -0.51 z-score |
| CCGATTAACATCACGAAATTTCCTGATGTTAATCGGGTCTTGATTCGCTTGACGCTGCTG | 0.479 z-score |
| CCGATTAACATCAGGAATTCTCCTGATGTTAATCGGGTCTTGATTCGCTTGACGCTGCTG | -0.269 z-score |
| CCGATTAACATCAGTGTCCCGTTTGATGTTAATCGGGTCTTGATTCGCTTGACGCTGCTG | 0.354 z-score |
| CCGATTAACATCAAAGTGGGAAATGATGTTAATCGGGTCTTGATTCGCTTGACGCTGCTG | 2.54 z-score |
| CCGATTAACATCAATAAAATTCCTGATGTTAATCGGGTCTTGATTCGCTTGACGCTGCTG | 0.342 z-score |
| CCGATTAACATCAGGAGTTGCCCTGATGTTAATCGGGTCTTGATTCGCTTGACGCTGCTG | 0.559 z-score |
| CCGATTAACATCAGGACATCCCATGATGTTAATCGGGTCTTGATTCGCTTGACGCTGCTG | -0.275 z-score |
| CCGATTAACATCAAAATTCCGGATGATGTTAATCGGGTCTTGATTCGCTTGACGCTGCTG | -1.46 z-score |
| CCGATTAACATCAAAATTTCCCCTGATGTTAATCGGGTCTTGATTCGCTTGACGCTGCTG | 10.6 z-score |
| CCGATTAACATCAGGAAATTTACTGATGTTAATCGGGTCTTGATTCGCTTGACGCTGCTG | 0.222 z-score |
| CCGATTAACATCAAGAATTTTCCTGATGTTAATCGGGTCTTGATTCGCTTGACGCTGCTG | 0.384 z-score |
| CCGATTAACATCAAAAATCCCCGTGATGTTAATCGGGTCTTGATTCGCTTGACGCTGCTG | 6.22 z-score |
| CCGATTAACATCAAGGAATGTCCTGATGTTAATCGGGTCTTGATTCGCTTGACGCTGCTG | 0.0783 z-score |
| CCGATTAACATCAAGGAATCTCCTGATGTTAATCGGGTCTTGATTCGCTTGACGCTGCTG | -0.787 z-score |
| CCGATTAACATCAAAAATTCCTATGATGTTAATCGGGTCTTGATTCGCTTGACGCTGCTG | 0.16 z-score |
| CCGATTAACATCAGGAAAATCCATGATGTTAATCGGGTCTTGATTCGCTTGACGCTGCTG | 0.171 z-score |
| CCGATTAACATCAGGGGGTTTTATGATGTTAATCGGGTCTTGATTCGCTTGACGCTGCTG | 3.52 z-score |
| CCGATTAACATCAGGATTTGCCCTGATGTTAATCGGGTCTTGATTCGCTTGACGCTGCTG | 0.281 z-score |
| CCGATTAACATCAGGACAGTCCATGATGTTAATCGGGTCTTGATTCGCTTGACGCTGCTG | -0.89 z-score |

| Sequence | binding signal |
| --- | --- |
| CCGATTAACATCAGGAATTTACCTGATGTTAATCGGGTCTTGATTCGCTTGACGCTGCTG | -0.159 z-score |
| CCGATTAACATCAAAAATATTCCTGATGTTAATCGGGTCTTGATTCGCTTGACGCTGCTG | 0.0926 z-score |
| CCGATTAACATCAGGTAACTACCTGATGTTAATCGGGTCTTGATTCGCTTGACGCTGCTG | -1.13 z-score |
| CCGATTAACATCAAGGAAAAGCCTGATGTTAATCGGGTCTTGATTCGCTTGACGCTGCTG | -0.517 z-score |
| CCGATTAACATCAGGAATCTCCATGATGTTAATCGGGTCTTGATTCGCTTGACGCTGCTG | 0.488 z-score |
| CCGATTAACATCAGAGGATTTCCTGATGTTAATCGGGTCTTGATTCGCTTGACGCTGCTG | -0.652 z-score |
| CCGATTAACATCAGCGGAAATCCTGATGTTAATCGGGTCTTGATTCGCTTGACGCTGCTG | 0.175 z-score |
| CCGATTAACATCAGAATTTCCGCTGATGTTAATCGGGTCTTGATTCGCTTGACGCTGCTG | -0.385 z-score |
| CCGATTAACATCAAGGAAAATCCTGATGTTAATCGGGTCTTGATTCGCTTGACGCTGCTG | 0.839 z-score |
| CCGATTAACATCAGAAATTCCGCTGATGTTAATCGGGTCTTGATTCGCTTGACGCTGCTG | -0.467 z-score |
| CCGATTAACATCAGGAAAACTCCTGATGTTAATCGGGTCTTGATTCGCTTGACGCTGCTG | -0.417 z-score |
| CCGATTAACATCAGGAATAGCCCTGATGTTAATCGGGTCTTGATTCGCTTGACGCTGCTG | -0.182 z-score |
| CCGATTAACATCAGAGAATTTCCTGATGTTAATCGGGTCTTGATTCGCTTGACGCTGCTG | 0.207 z-score |
| CCGATTAACATCAAGATCCCTTGTGATGTTAATCGGGTCTTGATTCGCTTGACGCTGCTG | -0.154 z-score |
| CCGATTAACATCAAAAAATCTCCTGATGTTAATCGGGTCTTGATTCGCTTGACGCTGCTG | 0.729 z-score |
| CCGATTAACATCAGGAAAGCCCATGATGTTAATCGGGTCTTGATTCGCTTGACGCTGCTG | 0.477 z-score |
| CCGATTAACATCAGGTTTTTCCATGATGTTAATCGGGTCTTGATTCGCTTGACGCTGCTG | 0.345 z-score |
| CCGATTAACATCAAGGCATTTCCTGATGTTAATCGGGTCTTGATTCGCTTGACGCTGCTG | -0.19 z-score |
| CCGATTAACATCAAATTTCCGGATGATGTTAATCGGGTCTTGATTCGCTTGACGCTGCTG | -0.217 z-score |
| CCGATTAACATCACGGCAAGTCCTGATGTTAATCGGGTCTTGATTCGCTTGACGCTGCTG | -0.328 z-score |

biological target: T2, GST-Dm-Relish (UniProt Q94527); experiment: protein-binding microarray (PBM); conditions: PBM: ~300 nM protein, 6 mM HEPES pH 7.8, 80 mM KCl, 0.5 mM EDTA, 0.5 mM EGTA, 6% glycerol, 35 ng/ul poly-dIdC, 1% milk, 1 h, room temperature; Ap Aiptasia and Nv Nematostella (sea anemones) / Co Capsaspora / Aq Amphimedon (sponge) / Dm Drosophila / Hu human; RHD is the Rel homology domain; high values mean tight binding; most listed sequences are background and not binding sites; double strand, one strand shown
T2 sequence: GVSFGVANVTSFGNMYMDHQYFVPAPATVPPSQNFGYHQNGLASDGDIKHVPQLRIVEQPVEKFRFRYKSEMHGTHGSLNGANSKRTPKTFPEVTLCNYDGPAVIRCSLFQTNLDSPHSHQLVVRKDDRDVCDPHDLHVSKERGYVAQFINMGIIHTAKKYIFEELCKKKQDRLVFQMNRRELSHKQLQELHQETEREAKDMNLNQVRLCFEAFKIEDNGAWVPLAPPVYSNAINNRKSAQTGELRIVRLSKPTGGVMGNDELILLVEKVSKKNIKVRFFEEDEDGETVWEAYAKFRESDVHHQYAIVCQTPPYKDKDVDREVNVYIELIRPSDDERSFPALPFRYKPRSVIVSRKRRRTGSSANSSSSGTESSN

| Sequence | binding signal |
| --- | --- |
| CCGATTAACATCAGGAAATATCCTGATGTTAATCGGGTCTTGATTCGCTTGACGCTGCTG | 0.438 z-score |
| CCGATTAACATCACGAAATTTCCTGATGTTAATCGGGTCTTGATTCGCTTGACGCTGCTG | 0.545 z-score |
| CCGATTAACATCAGGAATTCTCCTGATGTTAATCGGGTCTTGATTCGCTTGACGCTGCTG | 0.661 z-score |
| CCGATTAACATCAGTGTCCCGTTTGATGTTAATCGGGTCTTGATTCGCTTGACGCTGCTG | 0.11 z-score |
| CCGATTAACATCAAAGTGGGAAATGATGTTAATCGGGTCTTGATTCGCTTGACGCTGCTG | 0.647 z-score |
| CCGATTAACATCAATAAAATTCCTGATGTTAATCGGGTCTTGATTCGCTTGACGCTGCTG | 1.81 z-score |
| CCGATTAACATCAGGAGTTGCCCTGATGTTAATCGGGTCTTGATTCGCTTGACGCTGCTG | 0.174 z-score |
| CCGATTAACATCAGGACATCCCATGATGTTAATCGGGTCTTGATTCGCTTGACGCTGCTG | 3.93 z-score |
| CCGATTAACATCAAAATTCCGGATGATGTTAATCGGGTCTTGATTCGCTTGACGCTGCTG | 0.253 z-score |
| CCGATTAACATCAAAATTTCCCCTGATGTTAATCGGGTCTTGATTCGCTTGACGCTGCTG | 8.41 z-score |
| CCGATTAACATCAGGAAATTTACTGATGTTAATCGGGTCTTGATTCGCTTGACGCTGCTG | 1.36 z-score |
| CCGATTAACATCAAGAATTTTCCTGATGTTAATCGGGTCTTGATTCGCTTGACGCTGCTG | 0.249 z-score |
| CCGATTAACATCAAAAATCCCCGTGATGTTAATCGGGTCTTGATTCGCTTGACGCTGCTG | 10.1 z-score |
| CCGATTAACATCAAGGAATGTCCTGATGTTAATCGGGTCTTGATTCGCTTGACGCTGCTG | 0.0202 z-score |
| CCGATTAACATCAAGGAATCTCCTGATGTTAATCGGGTCTTGATTCGCTTGACGCTGCTG | -0.385 z-score |
| CCGATTAACATCAAAAATTCCTATGATGTTAATCGGGTCTTGATTCGCTTGACGCTGCTG | 1.74 z-score |
| CCGATTAACATCAGGAAAATCCATGATGTTAATCGGGTCTTGATTCGCTTGACGCTGCTG | 1.26 z-score |
| CCGATTAACATCAGGGGGTTTTATGATGTTAATCGGGTCTTGATTCGCTTGACGCTGCTG | 10 z-score |
| CCGATTAACATCAGGATTTGCCCTGATGTTAATCGGGTCTTGATTCGCTTGACGCTGCTG | -0.115 z-score |
| CCGATTAACATCAGGACAGTCCATGATGTTAATCGGGTCTTGATTCGCTTGACGCTGCTG | -0.302 z-score |

| Sequence | binding signal |
| --- | --- |
| CCGATTAACATCAGGAATTTACCTGATGTTAATCGGGTCTTGATTCGCTTGACGCTGCTG | 4.54 z-score |
| CCGATTAACATCAAAAATATTCCTGATGTTAATCGGGTCTTGATTCGCTTGACGCTGCTG | 0.981 z-score |
| CCGATTAACATCAGGTAACTACCTGATGTTAATCGGGTCTTGATTCGCTTGACGCTGCTG | 3.08 z-score |
| CCGATTAACATCAAGGAAAAGCCTGATGTTAATCGGGTCTTGATTCGCTTGACGCTGCTG | 0.139 z-score |
| CCGATTAACATCAGGAATCTCCATGATGTTAATCGGGTCTTGATTCGCTTGACGCTGCTG | 1.01 z-score |
| CCGATTAACATCAGAGGATTTCCTGATGTTAATCGGGTCTTGATTCGCTTGACGCTGCTG | 1.74 z-score |
| CCGATTAACATCAGCGGAAATCCTGATGTTAATCGGGTCTTGATTCGCTTGACGCTGCTG | 1.26 z-score |
| CCGATTAACATCAGAATTTCCGCTGATGTTAATCGGGTCTTGATTCGCTTGACGCTGCTG | 0.0583 z-score |
| CCGATTAACATCAAGGAAAATCCTGATGTTAATCGGGTCTTGATTCGCTTGACGCTGCTG | 1.5 z-score |
| CCGATTAACATCAGAAATTCCGCTGATGTTAATCGGGTCTTGATTCGCTTGACGCTGCTG | 0.523 z-score |
| CCGATTAACATCAGGAAAACTCCTGATGTTAATCGGGTCTTGATTCGCTTGACGCTGCTG | 0.99 z-score |
| CCGATTAACATCAGGAATAGCCCTGATGTTAATCGGGTCTTGATTCGCTTGACGCTGCTG | -0.24 z-score |
| CCGATTAACATCAGAGAATTTCCTGATGTTAATCGGGTCTTGATTCGCTTGACGCTGCTG | -0.0887 z-score |
| CCGATTAACATCAAGATCCCTTGTGATGTTAATCGGGTCTTGATTCGCTTGACGCTGCTG | 0.695 z-score |
| CCGATTAACATCAAAAAATCTCCTGATGTTAATCGGGTCTTGATTCGCTTGACGCTGCTG | 1.02 z-score |
| CCGATTAACATCAGGAAAGCCCATGATGTTAATCGGGTCTTGATTCGCTTGACGCTGCTG | 4.29 z-score |
| CCGATTAACATCAGGTTTTTCCATGATGTTAATCGGGTCTTGATTCGCTTGACGCTGCTG | 2.68 z-score |
| CCGATTAACATCAAGGCATTTCCTGATGTTAATCGGGTCTTGATTCGCTTGACGCTGCTG | -0.672 z-score |
| CCGATTAACATCAAATTTCCGGATGATGTTAATCGGGTCTTGATTCGCTTGACGCTGCTG | 0.195 z-score |
| CCGATTAACATCACGGCAAGTCCTGATGTTAATCGGGTCTTGATTCGCTTGACGCTGCTG | 0.56 z-score |

From PMC5700166
